Data: PMC4336329 (PLoS ONE, 2015)
The campaign covered roughly 310,000 compounds. About 2,200 (0.71%) showed an effect of 50% or more. Effects have a minus sign here. The list shows a part of the results.

Target: human ether-à-go-go-related gene (hERG) potassium channel (human, UniProt Q12809)
Test: primary screen, population patch clamp on CHO cells stably expressing hERG

Chain of human ether-à-go-go-related gene (hERG) potassium channel (Q12809 whole entry, looked up): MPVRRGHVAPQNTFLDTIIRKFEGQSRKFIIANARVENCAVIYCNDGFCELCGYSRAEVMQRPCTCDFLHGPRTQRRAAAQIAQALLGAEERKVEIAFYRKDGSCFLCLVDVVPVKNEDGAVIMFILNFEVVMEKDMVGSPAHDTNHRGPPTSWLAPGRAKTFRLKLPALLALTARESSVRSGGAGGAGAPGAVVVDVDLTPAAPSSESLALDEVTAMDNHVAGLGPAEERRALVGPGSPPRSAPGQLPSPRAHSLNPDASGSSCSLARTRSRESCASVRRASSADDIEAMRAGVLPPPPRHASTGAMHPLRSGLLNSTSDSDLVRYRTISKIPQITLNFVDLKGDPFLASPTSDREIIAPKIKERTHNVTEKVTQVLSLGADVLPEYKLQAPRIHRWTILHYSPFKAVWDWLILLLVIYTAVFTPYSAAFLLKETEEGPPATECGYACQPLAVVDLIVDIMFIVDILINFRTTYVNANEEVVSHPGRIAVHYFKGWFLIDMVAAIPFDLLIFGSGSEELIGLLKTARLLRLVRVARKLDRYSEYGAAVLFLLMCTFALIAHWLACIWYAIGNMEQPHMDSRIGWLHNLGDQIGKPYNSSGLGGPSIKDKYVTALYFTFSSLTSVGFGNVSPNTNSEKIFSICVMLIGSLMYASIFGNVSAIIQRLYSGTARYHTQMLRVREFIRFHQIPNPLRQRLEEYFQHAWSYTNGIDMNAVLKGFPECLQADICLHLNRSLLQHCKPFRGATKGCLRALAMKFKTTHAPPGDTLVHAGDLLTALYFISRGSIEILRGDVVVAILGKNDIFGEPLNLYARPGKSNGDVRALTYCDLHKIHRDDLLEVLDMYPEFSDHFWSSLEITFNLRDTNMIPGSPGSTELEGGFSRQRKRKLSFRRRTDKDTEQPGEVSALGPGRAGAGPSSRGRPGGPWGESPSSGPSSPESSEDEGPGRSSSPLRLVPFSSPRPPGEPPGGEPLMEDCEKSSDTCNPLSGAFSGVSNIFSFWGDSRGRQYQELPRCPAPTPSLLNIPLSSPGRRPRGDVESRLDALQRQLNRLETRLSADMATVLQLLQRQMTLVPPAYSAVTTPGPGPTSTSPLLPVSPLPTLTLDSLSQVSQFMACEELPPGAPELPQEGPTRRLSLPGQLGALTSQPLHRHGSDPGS

Compound	hERG current change (%, negative = inhibition) at 1uM
Cc1nn(C)c(C)c1NS(=O)(=O)c1ccccc1	14.8%
CC1(C)Oc2ccc(NC(=O)C3COc4ccccc4O3)cc2O1 (stereo not drawn)	7.61%
Cc1ccc(CNC(=O)Cn2cnc3cc([N+](=O)[O-])ccc3c2=O)cc1	-3.95%
O=C(COc1ccc(Cl)cc1Cl)N1CCCCCC1	6.67%
Fc1ccc(NC(=S)N2CCn3cccc3C2c2cccnc2)cc1 (stereo not drawn)	-2.7%
CC(C)N1C(=O)CCC1C(=O)NCc1ccc(F)cc1Cl (stereo not drawn)	15.5%
COCCCN1C2=C(C(=O)CC(C)(C)C2)C(c2ccc(OC)c(OC)c2)C2=C1CC(C)(C)CC2=O	12.5%
CCC1CCCCN1C(=O)COc1ccccc1NC(C)=O (stereo not drawn)	20.1%
COc1ccc(-c2nnn(CC(=O)N(CC(=O)NC3CCCC3)c3ccccc3F)n2)cc1OC	13.2%
COc1ccc(-c2csc(NC(=O)CS(=O)(=O)c3ccccc3)n2)cc1	13.4%
COC(=O)c1cc(S(=O)(=O)N2CCN(c3cccc(Cl)c3)CC2)c[nH]1	-0.4%
Cc1nc2c(-c3ccc(F)cc3)c(C)[nH]n2c(=O)c1Cl	9.5%
CCOc1ccccc1Nc1ccc2nonc2c1[N+](=O)[O-]	13.1%
CCC(C)n1c(SCC(=O)NCc2ccco2)nnc1-c1cccc(S(=O)(=O)N2CCOCC2)c1 (stereo not drawn)	-0.662%
CCOC(=O)C1CCN(C(=O)c2cc3c(=O)n4cccc(C)c4nc3s2)CC1	6.68%
COc1ccc(C(=O)N/N=C\c2coc3ccccc3c2=O)cc1	14.6%
O=C(CCc1nnc2ccc(NCc3ccccc3Cl)nn12)NCC1CCN(C2CCCC2)C1 (stereo not drawn)	11.9%
Cc1cc(F)ccc1S(=O)(=O)N1CCCCC1CCNC(=O)C(=O)NCCN1CCOCC1 (stereo not drawn)	12.4%
CCCCn1cnc2sc3c(c2c1=N)CCCC3	-8.82%
CCn1c(C)c(C(=O)Nc2ccc(OC)cc2)c2cc(OC)ccc21	16.1%
CC1(C)Cc2nc3oc4c(=O)n(CC(=O)Nc5ccc(Cl)cc5)cnc4c3cc2CO1	16.1%
CCOC(=O)CNC(=O)Cn1cnc2ccc(S(=O)(=O)N3CCC(C)CC3)cc2c1=O	8.11%

Compound	hERG current change (%, negative = inhibition) at 1uM
CCCC(C(=O)NC(C)(C)CC)N(CC1CCCO1)C(=O)CNS(=O)(=O)c1ccc(F)cc1 (stereo not drawn)	-12.1%
Cc1cc(C)c2nc(N(CCCN(C)C)C(=O)c3ccc(S(=O)(=O)N4CCCCCC4)cc3)sc2c1.Cl	14.2%
CCc1c(C)[nH]c2c(C)cccc2c1=O	13.1%
COC(=O)C1=C(c2ccc(F)cc2OCc2ccccc2)C[C@@H]2CC[C@H]1N2C(=O)NC1Cc2ccccc2C1	11.5%
CN1CC(=O)N(CC(=O)Nc2cc(Cl)cc(Cl)c2)C1=O	-15.5%
CN(Cc1ccccc1)C(=O)CCC(=O)N(C)Cc1ccccc1	0.498%
O=C1C2C3C=CC(O3)C2C(=O)N1CC(O)c1ccccc1 (stereo not drawn)	5.01%
CC(C)(C)NCC(O)COCc1ccc(Cl)cc1.Cl (stereo not drawn)	7.2%
CCN(Cc1ccccc1)C(=O)Cn1cc2c(n1)CCCC2	4.9%
C/C(Cl)=C/CC1(CN2CCCC2=O)C(=O)NC(=O)NC1=O	8.94%
Cc1ccc(NC(=S)Nc2ccccn2)c(C)c1	5.97%
Cc1ccc(S(=O)(=O)N2CCCCC2)cc1C(=O)OC1CCCCC1=O (stereo not drawn)	3.78%
CCOC(=O)C1CCN(C(c2cccnc2)c2c(NC(=O)c3ccco3)sc(C)c2C)CC1 (stereo not drawn)	5.23%
O=C(NCc1ccc2c(c1)OCO2)c1ccc(Br)o1	16.1%
Cc1cccc(N/N=C(\C#N)S(=O)(=O)C(C)(C)C)c1	2.93%
[Cl-].[NH3+]CCCn1c(C(=O)c2ccc(Cl)cc2)c2ccc(C(F)(F)F)cc2[n+]1[O-]	-80.9%
CC(=O)Nc1ccc(NS(=O)(=O)c2ccc(-c3cnc(C4CC4)o3)cc2)cc1	10.4%
CC1CC(Nc2ccccc2)c2ccccc2N1C(=O)c1ccncc1 (stereo not drawn)	5.72%
CCOc1ccccc1NC(=O)CSc1nc2cc(O)ccc2c(=O)n1-c1ccc(OC)c(OC)c1	16.9%
O=C(CSc1nccc(=O)[nH]1)Nc1ccc2c(c1)OCCO2	29.9%
CCc1nc2scc(-c3cccs3)c2c(=O)o1	5.7%
CN(CC(=O)Nc1cccc(S(=O)(=O)N2CCCC2)c1)CC(=O)Nc1ccc(Cl)c(C(F)(F)F)c1	-7.97%

Compound	hERG current change (%, negative = inhibition) at 1uM
CCOC(=O)C1CCN(S(=O)(=O)c2ccc3c(c2)CCN3C(=O)C2CCC2)CC1	13.4%
COc1ccccc1OCC(O)Cn1c(Br)nc2c1c(=O)[nH]c(=O)n2C (stereo not drawn)	4.9%
Cc1cc(N2CCCC(C(=O)Nc3cccc4ccccc34)C2)n2ncnc2n1 (stereo not drawn)	-4.76%
CCOC(=O)C1CCN(C(C(=O)Nc2ccc3c(c2)OCCO3)c2ccccc2)CC1 (stereo not drawn)	3.81%
Cc1ccc(-c2nc3cccnc3o2)cc1NC(=O)COc1ccc(C(C)(C)C)cc1	7.31%
COc1ccc(-n2c(O)c(C=NCCN(C)C)c(=O)[nH]c2=O)cc1	6.45%
O=c1cc(CSc2ccc(S(=O)(=O)N3CCCCC3)cn2)nc2sccn12	2.89%
NS(=O)(=O)c1ccc(NC(=O)COC(=O)C2CCCCC2)cc1	4.34%
COc1ccc(OC)c(-n2c(SC)nnc2-c2c[nH]c3ccccc23)c1	3.38%
COc1ccc(C(=O)N/C(=C/c2cccnc2)C(=O)N2CCN(C)CC2)cc1OC	2.99%
CN(Cc1nc2ccccc2c(=O)[nH]1)Cc1cc(=O)oc2ccc3ccccc3c12	-8.72%
Cc1ccc(-c2cn(CCN)c(-c3ccc(Cl)nc3)n2)cc1	7.05%
Cc1ccc(NC(=O)Cn2c3ccc(F)cc3c3nc4n(c(=O)c32)CCS4)cc1F	11.7%
CCOC(=O)C1CCN(C(=O)c2ccccc2NS(=O)(=O)c2ccc(F)cc2)CC1	1.41%
COc1cc(OC)c(C(=O)OC(C)C(=O)Nc2cccc(C(F)(F)F)c2)cc1OC (stereo not drawn)	9.78%
O=C(COC(=O)c1c[nH]c2ccccc12)NC1CCCCC1	5.28%
CCN1C(=O)C2(C(C(=O)c3ccc(C)o3)=C(O)C(=O)N2CCCN2CCOCC2)c2ccccc21 (stereo not drawn)	-4.6%
COc1cc(/C=N/NC(=O)C(=O)N2CCCCCC2)ccc1O	16.7%
O=C(COC(=O)/C=C/c1ccccc1)Nc1ccccc1Br	-16.8%
CN1CCCN(C(=O)CSc2ccccc2)CC1	7.6%
COc1cc2[nH]c(=O)n(CCC(=O)NCc3cccnc3)c(=O)c2cc1OC	6.67%
NNc1nnc2c3cc(F)ccc3n(Cc3ccccc3)c2n1	2.58%

Compound	hERG current change (%, negative = inhibition) at 1uM
Cn1nc(-c2ccc(Cl)cc2)c2cc(C(=O)N3CCCC3)sc21	10.9%
O=C(CSc1nnc(-c2ccc(C(F)(F)F)cn2)s1)c1ccc(Cl)cc1	12.4%
CCc1ccc(NC(=O)N(CCOC)C2CCN(C(C)=O)CC2)cc1	-3.67%
O=c1c2ccccc2nc(/C=C/c2ccc(O)cc2)n1-c1cccc(O)c1	7.19%
C[N+]1(CC(=O)Nc2ccc(F)cc2)CCN(C(=O)c2ccco2)CC1.[Cl-]	18.3%
CCN(CC(=O)Nc1c(F)cccc1F)C(=O)c1ccc(-c2ccccc2)cc1	0.769%
COc1ccc(-n2nnc3c(=O)n(CC(=O)N4CCC(Cc5ccccc5)CC4)cnc32)cc1	15.4%
COC(=O)c1cnc(Oc2ccc(NC(=O)NC(=O)c3c(F)cccc3F)cc2)cc1C(F)(F)F	10.6%
O=[N+]([O-])c1ccc(O)c2ncccc12	15.7%
CC(OC(=O)c1cc(S(=O)(=O)N2CCOCC2)ccc1F)C(=O)NCc1ccc2c(c1)OCO2 (stereo not drawn)	6.56%
Cc1ccc(C(=O)N2CC(C(=O)O)C2)cc1	1.17%
CC(C)CCNC(=O)[C@@H](NC(=O)c1c(F)cccc1F)C(C)C	8.14%
COC(=O)N/N=C\c1ccc(OC/C=C/c2ccccc2)c(OC)c1	8.91%
O=C(NCc1ccco1)c1ccc(-c2ccccc2Cl)o1	5.85%
Cc1ccc(S(=O)(=O)NCCSc2nnc(N)s2)cc1	3.96%
COc1ccc(-n2c(C)cc(-c3csc(N)n3)c2C)cc1	-2.31%
CCCc1ccc2oc(C(=O)N3CCC(O)CC3)c(C)c2c1	12%
COc1ccc(C(=O)C(O)C(c2ccc(C)cc2)N2CCOCC2)cc1OC (stereo not drawn)	10.2%
N#C/C(=N\Nc1cccc(Cl)c1)C(=O)c1ccccc1	0.942%
O=C(NN1CCOCC1)c1cccc2ccccc12	9.51%
CCN(CC(=O)NCc1cccs1)C(=O)COc1ccc(C(C)=O)cc1	-5.19%
